One experiment has as its target T1, hVSIG3-Fc (human, UniProt Q5DX21 23-241).
T1 chain: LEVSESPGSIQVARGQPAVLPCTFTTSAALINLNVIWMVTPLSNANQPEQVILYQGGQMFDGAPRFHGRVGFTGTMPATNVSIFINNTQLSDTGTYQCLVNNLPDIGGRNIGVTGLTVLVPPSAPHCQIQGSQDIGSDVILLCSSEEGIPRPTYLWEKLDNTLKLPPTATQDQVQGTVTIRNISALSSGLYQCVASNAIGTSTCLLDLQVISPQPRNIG
As to the kind of experiment: ELISA.

A further experiment concerns the target T2, Human PSGL-1-Fc (human, UniProt Q14242 42-320).
T2 chain: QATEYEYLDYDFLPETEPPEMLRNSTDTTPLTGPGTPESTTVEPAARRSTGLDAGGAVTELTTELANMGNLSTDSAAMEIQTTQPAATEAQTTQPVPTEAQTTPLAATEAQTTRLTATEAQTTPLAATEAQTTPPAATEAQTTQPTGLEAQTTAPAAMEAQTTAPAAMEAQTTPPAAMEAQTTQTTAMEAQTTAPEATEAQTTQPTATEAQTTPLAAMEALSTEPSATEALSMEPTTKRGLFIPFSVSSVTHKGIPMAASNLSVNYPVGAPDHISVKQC
As to the kind of experiment: ELISA.

For the next experiment, the target named is T3, cyno VISTA-Fc (cynomolgus monkey).
T3 chain: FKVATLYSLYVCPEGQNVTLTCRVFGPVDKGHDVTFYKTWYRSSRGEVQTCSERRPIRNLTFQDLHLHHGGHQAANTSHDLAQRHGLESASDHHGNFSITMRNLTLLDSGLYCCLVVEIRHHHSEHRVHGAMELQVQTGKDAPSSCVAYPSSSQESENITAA
The experiment in a line: FACS; apparent, yeast-displayed scFv. For orientation: In flow cytometry, cells or beads pass a laser one at a time.

The next experiment concerns the target hVISTA-Fc (human, biotin (EZ-Link NHS Ester) in the competition ELISA (#3) and in the T cell binding assay). The experiment in a line: FACS; apparent, yeast-displayed scFv.

Our source for the Kd values is publication PMC7494997 (2020).

hVISTA-Fc, sequence (chain, as listed by the source): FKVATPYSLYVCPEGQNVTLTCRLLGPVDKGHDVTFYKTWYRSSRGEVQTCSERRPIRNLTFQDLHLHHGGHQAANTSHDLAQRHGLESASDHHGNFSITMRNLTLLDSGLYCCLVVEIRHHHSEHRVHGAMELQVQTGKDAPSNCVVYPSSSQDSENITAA

B1: soluble hVISTA-Fc F62A (Fc fusion)
chain: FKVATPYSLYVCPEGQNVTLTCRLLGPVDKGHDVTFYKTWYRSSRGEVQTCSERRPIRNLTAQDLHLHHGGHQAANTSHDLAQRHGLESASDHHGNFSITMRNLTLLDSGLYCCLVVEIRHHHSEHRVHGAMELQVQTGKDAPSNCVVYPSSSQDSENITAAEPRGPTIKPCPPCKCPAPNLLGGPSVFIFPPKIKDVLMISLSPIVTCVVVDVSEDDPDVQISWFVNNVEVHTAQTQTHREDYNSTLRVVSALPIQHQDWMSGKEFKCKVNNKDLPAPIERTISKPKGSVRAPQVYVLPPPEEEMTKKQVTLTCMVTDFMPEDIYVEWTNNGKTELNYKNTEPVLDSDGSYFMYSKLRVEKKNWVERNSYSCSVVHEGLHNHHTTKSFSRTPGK
Turning to B1, in the experiment with hVSIG3-Fc, the Kd is 14 nM.

B2: soluble hVISTA-Fc E125A (Fc fusion)
chain: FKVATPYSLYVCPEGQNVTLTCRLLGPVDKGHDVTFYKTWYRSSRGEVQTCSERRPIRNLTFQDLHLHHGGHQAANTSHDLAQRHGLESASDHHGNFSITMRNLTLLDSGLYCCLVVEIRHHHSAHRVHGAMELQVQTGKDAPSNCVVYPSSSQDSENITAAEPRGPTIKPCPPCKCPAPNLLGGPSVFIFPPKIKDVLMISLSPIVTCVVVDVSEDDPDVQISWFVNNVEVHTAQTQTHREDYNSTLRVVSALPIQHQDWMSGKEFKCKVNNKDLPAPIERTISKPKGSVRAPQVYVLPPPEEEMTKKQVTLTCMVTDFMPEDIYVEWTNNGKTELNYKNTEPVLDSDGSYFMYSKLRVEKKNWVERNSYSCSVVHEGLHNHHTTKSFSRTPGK
In the experiment with Human PSGL-1-Fc, B2 had a Kd of 1.5 nM.

B3: Clone V9.7 (scFv)
scFv: [about 100 residues skipped]GGGTKVEIKGTTAASGSSGGSSSGAQVQLVQSGAEVKKPGSSVKVSCKASGGIFSSYAISWVRQAPGQGLEWMGGIIPIFGTANYAQKFQGRVTITADESTSTAYMELSSLRSEDTAVYYCARPVRSGPDYLQHWGQGTLVTVSS
For the molecule B3, the Kd with cyno VISTA-Fc came out at 0.36 nM; with hVISTA-Fc, 0.24 nM.
